Experimental data from PubChem BioAssay AID588795 (National Center for Advancing Translational Sciences (NCATS), 2011).
Values joined by “and” are separate entries in the source; they are usually repeats but may differ in a detail not shown here. Identical values can stand only once. The campaign covered roughly 390,000 compounds. About 1,400 (0.36%) were called active. The inconclusive results got no clear call from the source; some entries with a clear call stand among them for comparison. Calls follow the shape of the dose curve; as a rule, active = well fitted inhibition curve with a large enough effect; inconclusive = small, poorly fitted or top-dose-only effect; inactive = no such curve, though single readings can be large or run the other way. Potencies of inconclusive entries are doubtful fits and often do not repeat.

These molecules were tested against Flap endonuclease 1 (Homo sapiens) (UniProt P39748) (assay: qHTS Assay for the Inhibitors of Human Flap endonuclease 1 (FEN1).). Conditions: Recombinant FEN1 flap cleavage, fluorescence, 15 min; series mostly up to 114 µM.
UniProt P39748, sequence (P39748 whole entry, looked up): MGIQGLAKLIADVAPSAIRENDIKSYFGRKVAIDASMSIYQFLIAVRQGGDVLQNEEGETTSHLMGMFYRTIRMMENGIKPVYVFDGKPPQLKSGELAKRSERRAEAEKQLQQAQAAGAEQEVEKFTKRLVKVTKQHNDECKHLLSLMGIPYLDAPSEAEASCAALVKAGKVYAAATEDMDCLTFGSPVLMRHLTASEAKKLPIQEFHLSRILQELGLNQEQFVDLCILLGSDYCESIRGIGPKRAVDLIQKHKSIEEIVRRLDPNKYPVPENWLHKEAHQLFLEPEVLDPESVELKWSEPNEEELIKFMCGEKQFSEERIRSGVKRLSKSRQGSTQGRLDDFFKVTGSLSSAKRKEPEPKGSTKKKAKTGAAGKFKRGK
Method in brief: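 Concentration–response screening of FEN1 (10 nM): 15 min compound preincubation at room temperature, reaction started with 50 nM substrate and read at 0 and 15 min. Corrected, normalized data were fitted by a four-parameter Hill equation.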
Also: nearly all actives have a fitted effect of over 65% in size.
Potency is read from the fitted curve at half-maximal effect; tags tell the direction and shape of the fitted curve.

Structure (SMILES)	Potency
CC1=C(C/C(C)=C/c2ccccc2)/C(=C/CO)[C@@H]2OC(=O)O[C@]2(C)C12CC2	inactive
CCCCN1C(=O)/C(=C\c2ccco2)C(=O)N(CCc2ccccc2)C1=O	active: 56.2 µM
Nc1c2c(nc3ccccc13)CCN(Cc1ccccc1)C2	inconclusive: 28.2 µM [inhibitor, partial curve, poor fit]
COc1ccc(CN2C(=O)NC(=O)/C(=C\c3ccco3)C2=O)cc1	active: 28.2 µM
Cn1ccnc1	inconclusive: 37.7 µM [inhibitor, single point]
COc1cc2c(cc1OC)-c1c(OC)c(OC)c(OC)c3ccnc(c13)C2=O	active: 10 µM
O=[N+]([O-])/C=C/c1ccc2c(c1)OCO2	inconclusive: 8.44 µM [inhibitor, single point]
Nc1ccc2c(c1)Cc1ccccc1-2	inactive
Cc1cccc(N2CCc3c2nc2ccccc2c3N)c1	inconclusive: 28.2 µM [inhibitor, full curve] and inconclusive: 50.1 µM [inhibitor, partial curve, poor fit]
CN1CCN(c2cccc3c2C(=O)c2ccccc2C3=O)CC1	inconclusive: 35.5 µM [inhibitor, full curve, poor fit]
COc1ccc(C(CNC(=O)Cc2ccc(Cl)c(Cl)c2)N2CCCCC2)cc1 (stereo not given)	inactive
C[C@]12CC[C@@H](O)C[C@@H]1CC[C@@H]1[C@@H]2CC[C@]2(C)[C@@H](O)CC[C@@H]12	inconclusive: 112 µM [inhibitor, partial curve, poor fit]
O=C1NC(=O)C(=Cc2csc3ccccc23)C(=O)N1	inconclusive: 22.4 µM [inhibitor, full curve]
CCOc1cccc(N2C(=O)/C(=C/c3ccco3)C(=O)NC2=S)c1	active: 22.4 µM
COc1cc(/C=C/[N+](=O)[O-])ccc1O	inconclusive: 56.2 µM [inhibitor, partial curve, poor fit]
CN1C(=O)NC(=O)/C(=C\C=C\c2ccccc2[N+](=O)[O-])C1=O	inconclusive: 89.1 µM [inhibitor, single point]
COC(=O)C1=C(c2ccc(OC(F)(F)F)cc2)C[C@@H]2CC[C@H]1N2C(=O)N1CCCCC1	inconclusive: 79.4 µM [inhibitor, partial curve, poor fit]
Cc1ccc(/C=C2\C(=O)NC(=S)N(c3ccc(F)cc3)C2=O)o1	inconclusive: 15.8 µM [inhibitor, full curve, poor fit]
O=c1[nH]c(=S)[nH]c(O)c1N=Nc1cc(S(=O)(=O)Nc2ccc(Cl)cc2)ccc1Cl	inconclusive: 89.1 µM [inhibitor, single point]
O=C1NC(=O)C(=Cc2ccccc2Oc2ccc(F)cc2)C(=O)N1	inactive

Structure (SMILES)	Potency
O=C(Nc1ccc2oc(-c3cccnc3)nc2c1)c1ccc(-c2cccc(Cl)c2)o1	inconclusive: 89.1 µM [inhibitor, partial curve, poor fit]
Cc1ccsc1C(=O)C1CCCN(Cc2cc3ccccc3o2)C1 (stereo not given)	inconclusive: 56.2 µM [inhibitor, partial curve, poor fit]
O=C(Cc1ccc(S(=O)(=O)N2CCCC2)s1)N1CCN(c2ccc(F)cc2)CC1	inconclusive: 89.1 µM [inhibitor, partial curve, poor fit]
C=CCN1C(=O)NC(=O)/C(=C/c2ccoc2)C1=O	inconclusive: 50.1 µM [inhibitor, partial curve, poor fit]
O=[N+]([O-])c1ccc2nc(N3CCNCC3)ccc2c1	inconclusive: 44.7 µM [inhibitor, partial curve]
O=C1NC(=O)N(CCC2=CCCCC2)C(=O)/C1=C/c1ccc(O)cc1	inconclusive: 89.1 µM [inhibitor, partial curve, poor fit]
O=C1NC(=O)C(=Cc2cc(Cl)ccc2OCc2ccc(C(=O)O)cc2)C(=O)N1	inconclusive: 89.1 µM [inhibitor, single point]
CCN1CCN(c2ccc([N+](=O)[O-])cc2C=C2C(=O)NC(=O)NC2=O)CC1	inactive
CN(CCc1ccccc1)C(=O)c1ccc(NC(=O)Cc2cccc([N+](=O)[O-])c2)cc1	inconclusive: 79.4 µM [inhibitor, partial curve, poor fit]
Cc1cc(O)c2c(c1)OC(C)(C)C1=C2CC(C)CC1 (stereo not given)	inconclusive: 89.1 µM [inhibitor, partial curve, poor fit]
CCc1ccc(N2C(=O)NC(=O)/C(=C\C=C\c3ccco3)C2=O)cc1	active: 22.4 µM
O=C1NC(=O)C(=Cc2ccco2)C(=O)N1	inconclusive: 56.2 µM [inhibitor, partial curve, poor fit]
Cc1cc(OCC(=O)NCc2cccnc2)c2c3c(c(=O)oc2c1)CCCC3	inconclusive: 35.5 µM [inhibitor, partial curve, poor fit]
CCCCn1c(N)c(C(=O)OCCOC)c2nc3ccccc3nc21	inactive
O=P(Nc1cccc(Cl)c1)(Oc1ccccc1)Oc1ccccc1	inconclusive: 89.1 µM [inhibitor, partial curve, poor fit]
C=CCc1cc(C=C2C(=O)NC(=O)NC2=O)cc(OC)c1OCc1ccc(C(=O)O)cc1	inconclusive: 79.4 µM [inhibitor, partial curve]
COc1ccc(-c2nc(CN3C(=O)CN=C(c4ccccc4)c4cc(Cl)ccc43)c(C)o2)cc1	inactive
Cc1cccn2c(=O)c(/C=C(\C#N)c3nc4ccccc4s3)c(Oc3ccc(F)cc3)nc12	inconclusive: 22.4 µM [inhibitor, full curve, poor fit]
O=C(Nc1ccc2c(c1)OCCO2)c1cccn(Cc2cccc(F)c2)c1=O	inconclusive: 31.6 µM [inhibitor, partial curve, poor fit]
CC(C)Oc1cccc(NC(=O)c2cccn(Cc3ccc4c(c3)OC(F)(F)O4)c2=O)c1	inconclusive: 31.6 µM [inhibitor, partial curve, poor fit]

Structure (SMILES)	Potency
CCOC(=O)c1ncn2c1CN(C)C(=O)c1cc(F)ccc1-2	inconclusive: 29.9 µM [inhibitor, single point]
Cc1ccc(N2C(=O)NC(=O)/C(=C/C=C/c3ccco3)C2=O)cc1	inconclusive: 56.2 µM [inhibitor, partial curve]
C=CCN1C(=O)NC(=O)/C(=C\c2ccc(-c3ccccc3[N+](=O)[O-])o2)C1=O	inconclusive: 89.1 µM [inhibitor, partial curve, poor fit]
CN(C)c1ccc(C=C2C(=O)NC(=S)NC2=O)cc1	inconclusive: 50.1 µM [inhibitor, partial curve, poor fit]
C=C1C(=O)O[C@@H]2C[C@@H](C)[C@@H]3C=CC(=O)[C@@]3(C)[C@@H](OC(=O)CC(=O)O[C@H]3[C@@H]4C(=C)C(=O)O[C@@H]4C[C@@H](C)[C@@H]4C=CC(=O)[C@]43C)[C@H]12	inconclusive: 35.5 µM [inhibitor, single point]
CCOC(=O)CCCc1cc[c]([Sb](=[O])([OH])[OH])cc1	active: 3.55 µM
Cc1ccc(C(c2sc3nc(C)nn3c2O)N2CCOCC2)cc1 (stereo not given)	inconclusive: 28.2 µM [inhibitor, single point]
COC(=O)c1cncn1C(C)c1ccccc1 (stereo not given)	inactive
COc1cc2c(cc1OC)-c1c(OC)c(OC)cc3c1[C@H](C2)N(C)CC3	inconclusive: 8.91 µM [inhibitor, full curve]
Cc1nn(C(C)(C)C)c(C)c1/C=N/OC(=O)Nc1ccc(Cl)cc1	inconclusive: 89.1 µM [inhibitor, partial curve, poor fit]
O=C1NC(=S)NC(=O)C1=Cc1cccn1-c1ccc(O)cc1	active: 35.5 µM
O=C1c2cccc(O)c2C(=O)c2c(O)cc(CO)cc21	inconclusive: 50.1 µM [inhibitor, partial curve, poor fit]
CCCN1CCc2cc(O)cc3c2[C@H]1Cc1ccc(O)c(O)c1-3	active: 50.1 µM
O=C(Cc1ccccc1)N1CCN(Cc2ccccc2Cl)CC1	inactive
COc1ccc2c(c1)[nH]c1c(C)nccc12	inconclusive: 50.1 µM [inhibitor, partial curve] and inconclusive: 50.1 µM [inhibitor, partial curve, poor fit]
COc1ccc2c(c1)/C(=C/c1cnc[nH]1)C(=O)N2	inconclusive: 50.1 µM [inhibitor, partial curve] and inconclusive: 44.7 µM [inhibitor, partial curve] and inconclusive: 11.9 µM [inhibitor, partial curve, poor fit]
CCC(COC(=O)c1cc(OC)c(OC)c(OC)c1)(c1ccccc1)N(C)C (stereo not given)	inconclusive: 50.1 µM [inhibitor, partial curve, poor fit]
COc1ccc(/C=C2/C(=O)N(Cc3ccco3)C(=O)N(C(C)C)C2=O)cc1	inconclusive: 10 µM [inhibitor, full curve, poor fit]
C[C@@H]1O[C@@H](Oc2c(-c3ccc(O)c(O)c3)oc3cc(O)cc(O)c3c2=O)[C@H](O)[C@H](O)[C@H]1O	inconclusive: 39.8 µM [inhibitor, partial curve, poor fit]
O=C1NC(=O)C(=Cc2ccccc2OCCOc2ccc([N+](=O)[O-])cc2)C(=O)N1	inconclusive: 89.1 µM [inhibitor, single point]
